Experimental data from PMC7303358, “The Lotus japonicus Ubiquitin Ligase SIE3 Interacts With the Transcription Factor SIP1 and Forms a Homodimer” (Frontiers in Plant Science, 2020).
Substitutions are numbered along the chain they refer to. Names may count otherwise. Results are given in words; binding and its absence hold for the method and conditions named. For part of these data: In cells and extracts the contact can be indirect. Some binding calls cover weakened binding; strength is not graded here. Tags and fused reporters may be left off the sequences shown.

Chains of the proteins cited; added tags and fusions are not shown.
UniProt O81445: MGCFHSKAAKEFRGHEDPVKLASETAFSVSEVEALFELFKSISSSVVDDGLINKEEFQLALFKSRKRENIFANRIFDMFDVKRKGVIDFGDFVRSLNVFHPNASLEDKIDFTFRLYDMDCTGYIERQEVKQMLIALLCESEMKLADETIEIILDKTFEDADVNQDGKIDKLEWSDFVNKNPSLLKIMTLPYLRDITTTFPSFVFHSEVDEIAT

Experiments:
[1] = biological target: T1, SIP1, BiFC fusion expressed in N. benthamiana leaves (L. japonicus) (UniProt B2CZF7); assay: split reporter; BiFC with split CFP (SCN in pSCYNE, SCC in pSCYCE-R) in N. benthamiana leaf epidermal cells after Agrobacterium infiltration with p19; confocal microscopy
T1 sequence: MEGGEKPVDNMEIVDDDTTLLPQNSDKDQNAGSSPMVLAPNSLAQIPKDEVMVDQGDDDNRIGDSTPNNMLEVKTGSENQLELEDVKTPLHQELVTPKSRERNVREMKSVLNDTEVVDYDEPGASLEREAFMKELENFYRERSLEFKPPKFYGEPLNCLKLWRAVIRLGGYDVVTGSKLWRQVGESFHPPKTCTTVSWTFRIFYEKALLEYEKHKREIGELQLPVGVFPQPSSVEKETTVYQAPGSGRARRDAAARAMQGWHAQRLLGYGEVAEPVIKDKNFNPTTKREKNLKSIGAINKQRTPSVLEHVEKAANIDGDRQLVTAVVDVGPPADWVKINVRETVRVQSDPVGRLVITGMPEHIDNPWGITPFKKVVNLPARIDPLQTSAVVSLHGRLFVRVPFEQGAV

[2] = biological target: T2, Arabidopsis CBL-… PROTEIN KINASE 24 (CIPK24), SCC fusion for BiFC (Arabidopsis) (UniProt Q9LDI3); assay: as above
T2 sequence: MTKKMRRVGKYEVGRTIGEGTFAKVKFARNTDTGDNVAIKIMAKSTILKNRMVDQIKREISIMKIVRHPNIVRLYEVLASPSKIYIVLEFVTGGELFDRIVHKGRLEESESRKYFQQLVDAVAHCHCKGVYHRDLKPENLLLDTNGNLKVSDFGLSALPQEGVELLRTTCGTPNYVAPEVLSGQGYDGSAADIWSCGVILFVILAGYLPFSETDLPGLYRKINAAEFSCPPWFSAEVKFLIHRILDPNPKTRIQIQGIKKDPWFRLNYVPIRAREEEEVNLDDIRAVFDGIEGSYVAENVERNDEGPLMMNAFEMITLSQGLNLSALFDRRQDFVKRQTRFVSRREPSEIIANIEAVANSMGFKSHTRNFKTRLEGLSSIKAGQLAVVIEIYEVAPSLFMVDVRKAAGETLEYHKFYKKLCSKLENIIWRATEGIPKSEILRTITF

[3] = biological target: T3, SymRK interacting E3 ligase (SIE3), yeast two-hybrid fusions (L. japonicus) (UniProt K0BV36); assay: two-hybrid; Gal4 system, BD fusions in pGBKT7 and AD fusions in pGADT7, small-scale mating; growth on SD/-Trp-Leu-His-Ade (SD-4), X-gal and β-galactosidase activity (Miller units)
T3 sequence: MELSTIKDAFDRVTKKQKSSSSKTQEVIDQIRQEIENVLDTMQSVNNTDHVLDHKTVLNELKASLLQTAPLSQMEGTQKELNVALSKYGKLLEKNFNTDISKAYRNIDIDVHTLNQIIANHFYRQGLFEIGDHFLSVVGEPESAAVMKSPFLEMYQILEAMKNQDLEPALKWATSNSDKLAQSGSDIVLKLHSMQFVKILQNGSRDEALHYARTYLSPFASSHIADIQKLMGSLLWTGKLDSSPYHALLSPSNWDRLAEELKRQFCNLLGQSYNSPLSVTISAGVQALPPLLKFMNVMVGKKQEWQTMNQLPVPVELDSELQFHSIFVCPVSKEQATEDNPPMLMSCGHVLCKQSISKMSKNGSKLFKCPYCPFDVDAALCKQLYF

[4] = biological target: T4, SymRK interacting protein 1 (SIP1), yeast two-hybrid fusions (L. japonicus) (UniProt B2CZF7); assay: as above
T4 sequence: T1 sequence

[5] = biological target: Nod factor receptor 5 (NFR5), SCC fusion for BiFC (L. japonicus) (UniProt Q70KR1); assay: split reporter; BiFC with split CFP (SCN in pSCYNE, SCC in pSCYCE-R) in N. benthamiana leaf epidermal cells after Agrobacterium infiltration with p19; confocal microscopy
[6] = biological target: SIE3, BiFC fusion expressed in N. benthamiana leaves (L. japonicus) (UniProt K0BV36); assay: as above
[7] = biological target: SIE3, BiFC fusion expressed in N. benthamiana leaves (L. japonicus) (UniProt K0BV36); assay: SDS-PAGE and immunoblot of leaf extracts (band of dimer size); proteins extracted from N. benthamiana leaves of the BiFC experiments, immunoblot with anti-Flag or anti-HA antibody
[8] = biological target: SIE3-C266S, yeast two-hybrid fusions (L. japonicus) (UniProt K0BV36); assay: two-hybrid; Gal4 system, BD fusions in pGBKT7 and AD fusions in pGADT7, small-scale mating; growth on SD/-Trp-Leu-His-Ade (SD-4), X-gal and β-galactosidase activity (Miller units)
[9] = biological target: SIE3-C266S, BiFC fusion expressed in N. benthamiana leaves (L. japonicus) (UniProt K0BV36); assay: split reporter; BiFC with split CFP (SCN in pSCYNE, SCC in pSCYCE-R) in N. benthamiana leaf epidermal cells after Agrobacterium infiltration with p19; confocal microscopy
SIE3::GFP (L. japonicus) = SIE3::GFP (L. japonicus) (UniProt K0BV36); assay: SDS-PAGE without DTT in the loading buffer and immunoblot (band of dimer size); SIE3::GFP leaf extract in native buffer, incubated with 10 μM ATP at 4°C with 200 mM DTT; stopped with SDS loading buffer without DTT; anti-GFP blot

“Nod factor receptor 5 (NFR5), SCN fusion for BiFC (from UniProt Q70KR1 1-595)” was tested, and the binding [1] was “no binding”.

“Arabidopsis CALCINEURIN B-LIKE (CBL) 1, SCN fusion for BiFC (from UniProt O81445 1-213)” was tested, and the binding [2] was “binds”.

B1: SymRK interacting protein 1 (SIP1), yeast two-hybrid fusions (protein, UniProt B2CZF7 1-408)
chain: T1 sequence
For B1, the binding [3] was “binds”.

B2: SymRK interacting E3 ligase (SIE3), yeast two-hybrid fusions (protein, UniProt K0BV36 1-386)
chain: T3 sequence
For B2, the binding [4] was “binds” and the binding [3] was “binds”.

B3: SIE3, BiFC fusion expressed in N. benthamiana leaves (protein, UniProt K0BV36 1-386)
chain: T3 sequence
B3 was tested, and the binding [1] was “binds”, the binding [5] was “no binding” and the binding [6] was “binds”. For the same molecule, the binding [7] was “binds”.

B4: SIE3-C266S, yeast two-hybrid fusions (protein, UniProt K0BV36 1-386)
chain: T3 sequence with C266S
For B4, the binding [8] was “no binding”.

B5: SIE3-C266S, BiFC fusion expressed in N. benthamiana leaves (protein, UniProt K0BV36 1-386)
chain: T3 sequence with C266S
In the case of B5, the binding [9] is reported as “no binding”.

B6: SIE3::GFP (natural protein, L. japonicus, UniProt K0BV36 1-386, looked up)
chain: T3 sequence
notes: SIE3 of Lotus japonicus fused to GFP; the cloning of this construct is not described; Detected with anti-GFP antibody; monomer about 68.5 kDa, upper band about 137 kDa; source: N. benthamiana leaves, total proteins extracted in native buffer
For B6, the binding (SIE3::GFP (L. japonicus)) was “no binding (condition: with 200 mM DTT)”.
